Data as given in PMC4336329 (PLoS ONE, 2015).
Out of some 310,000 compounds screened, about 14,000 (4.5%) showed an effect of 50% or more. The effect is printed as a negative number. This is one part of the list.

What follows are compounds tested against human ether-à-go-go-related gene (hERG) potassium channel (human, UniProt Q12809) (assay: primary screen, population patch clamp on CHO cells stably expressing hERG).
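Further: peak tail current of the secondary pulse compared with the same well before compound.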

Sequence of human ether-à-go-go-related gene (hERG) potassium channel (Q12809 whole entry, looked up): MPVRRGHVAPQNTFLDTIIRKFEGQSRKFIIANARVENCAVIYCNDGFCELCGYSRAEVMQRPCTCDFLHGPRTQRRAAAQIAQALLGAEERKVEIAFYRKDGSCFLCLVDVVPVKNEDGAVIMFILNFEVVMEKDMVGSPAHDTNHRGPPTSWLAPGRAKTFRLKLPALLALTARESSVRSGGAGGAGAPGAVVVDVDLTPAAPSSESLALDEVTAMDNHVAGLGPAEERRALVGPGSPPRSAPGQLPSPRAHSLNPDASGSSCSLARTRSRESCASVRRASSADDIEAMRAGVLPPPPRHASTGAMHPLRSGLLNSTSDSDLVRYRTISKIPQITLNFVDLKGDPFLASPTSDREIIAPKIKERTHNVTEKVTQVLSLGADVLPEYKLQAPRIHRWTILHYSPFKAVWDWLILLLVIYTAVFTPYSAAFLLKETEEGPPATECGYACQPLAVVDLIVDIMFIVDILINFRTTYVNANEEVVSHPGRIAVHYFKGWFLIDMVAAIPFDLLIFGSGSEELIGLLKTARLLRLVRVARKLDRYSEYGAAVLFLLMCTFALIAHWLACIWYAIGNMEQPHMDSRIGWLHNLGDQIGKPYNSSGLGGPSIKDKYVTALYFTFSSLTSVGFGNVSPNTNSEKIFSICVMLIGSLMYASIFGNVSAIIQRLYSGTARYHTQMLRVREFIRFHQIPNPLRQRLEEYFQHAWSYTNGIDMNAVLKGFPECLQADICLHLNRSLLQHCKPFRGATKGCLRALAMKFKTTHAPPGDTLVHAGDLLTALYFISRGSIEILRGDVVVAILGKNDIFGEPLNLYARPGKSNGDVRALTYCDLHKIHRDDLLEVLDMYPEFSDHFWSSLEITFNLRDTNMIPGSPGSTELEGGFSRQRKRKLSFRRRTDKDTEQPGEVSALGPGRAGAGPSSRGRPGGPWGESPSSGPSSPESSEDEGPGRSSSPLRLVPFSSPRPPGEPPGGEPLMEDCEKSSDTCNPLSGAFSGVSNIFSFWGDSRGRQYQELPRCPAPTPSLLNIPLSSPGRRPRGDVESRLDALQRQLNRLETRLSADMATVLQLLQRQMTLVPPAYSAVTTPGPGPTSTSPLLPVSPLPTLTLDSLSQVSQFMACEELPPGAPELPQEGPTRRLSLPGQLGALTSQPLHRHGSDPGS

| SMILES | hERG current change (%, negative = inhibition) at 10uM [%] |
| --- | --- |
| O=C(CCCOc1ccccc1)Nc1ccc(S(=O)(=O)N2CCOCC2)cc1 | -13.9 |
| CC(=O)Nc1ccc(-c2cn3cccnc3n2)cc1 | 2.7 |
| CCN(CC)CCN1C(=O)/C(=C\c2ccc(Cl)c([N+](=O)[O-])c2)SC1=Nc1ccc(OC)cc1 | 5.33 |
| COc1cccc(-c2sc3ccc(OC)cc3c2-c2ccc(OC)cc2F)c1 | 7.17 |
| CC(Cc1ccccc1)NC(=O)c1ccc(N)cc1 (stereo not drawn) | 0.557 |
| COc1ccc2c(c1)[nH]c1c(=O)n(CCC3=CCCCC3)cnc12 | 5.06 |
| Cc1c(OCC(=O)NCc2ccccn2)ccc2c3c(c(=O)oc12)CCCC3 | 12.1 |
| O=C(O)CCC(=O)N1CCN(c2nc3ccccc3s2)CC1 | -4.33 |
| CC(=O)c1c(C)[nH]c(C(=O)CSc2nnc(-c3ccccc3)n2Cc2ccc3c(c2)OCO3)c1C | -1.37 |
| COc1ccc(Cn2c(=S)[nH]c3ccccc32)cc1 | 32.9 |
| CCOC(=O)CNC(=O)c1sc(NC(=O)c2ccccc2)nc1C | 1.47 |
| CCC(CC)C(=O)Nc1ccc(Nc2ccccc2)cc1 | 8.32 |
| CC1CN(C(=O)c2ccc(-c3ccccc3Cl)o2)CC(C)O1 (stereo not drawn) | -14.2 |
| Cc1ccc([N+](=O)[O-])cc1S(=O)(=O)Nc1ccc(C(=O)N(C)C)cc1 | 10.3 |
| O=C(CSc1nnc(CNC(=O)c2ccccc2F)o1)c1ccc(Cl)cc1 | -9.97 |
| COC(=O)c1cccc(NC(=S)NCc2ccc(Cl)cc2)c1 | 4.04 |
| COC(=O)c1ccc(NC(=S)NC2CC3CCC2C3)cc1 (stereo not drawn) | 9 |
| CSc1ccccc1NS(=O)(=O)c1ccc2c(c1)OCCO2 | -4.66 |
| COc1ccc(OC)c2[nH]c(=O)c(CCNC(=O)c3cc4ccccc4o3)cc12 | -49.9 |
| CCCNc1nc(C)cc(-c2cc(C(=O)Nc3ccccc3)on2)n1 | 8.74 |
| CCc1cc(C(=O)N(C)CC(=O)N(CC(C)C)c2c(N)n(CC(C)C)c(=O)[nH]c2=O)sc1C | 0.234 |
| Cc1ccc(OCCN(C)C(=O)c2cc(COc3ccc(F)cc3F)on2)cc1 | 7.33 |

| SMILES | hERG current change (%, negative = inhibition) at 10uM [%] |
| --- | --- |
| Cc1ccc(-c2nnc(SCC(=O)N(C)C)nc2-c2ccc(C)cc2)cc1 | -67.9 |
| N#Cc1ccccc1S(=O)(=O)N1CCN(C(=O)c2ccc(-n3cncn3)c([N+](=O)[O-])c2)CC1 | -23.3 |
| COc1ccc(CCNC(=O)CSc2nn(-c3ccccc3)c(=S)s2)cc1 | 16.4 |
| COc1cc(O)c(C(=O)/C=C/c2ccccc2)c(OC)c1 | 14.8 |
| NS(=O)(=O)c1ccc(N=NN2CCCCC2)cc1 | 3.11 |
| Cc1ccc(N(CC(=O)NCc2ccc(F)cc2)C(=O)c2snc(C(N)=O)c2N)cc1C | -1.8 |
| Cc1cc(=O)oc2cc(OCC3CC(c4ccc(Br)cc4)=NO3)ccc12 (stereo not drawn) | 11.5 |
| Cc1ccc2c(Cl)c(C(=O)NCCc3ccccc3)sc2c1 | 3.66 |
| CC(C)C(NS(=O)(=O)c1cccc(C(F)(F)F)c1)C(=O)N1CCc2ccccc2C1 (stereo not drawn) | 2.81 |
| COc1ccc(C(=O)N/N=C\c2ccc(OC)c(COc3ccccc3Br)c2)c(OC)c1 | 9.88 |
| Cc1ccc(C(=O)N2CCCCC2)cc1S(=O)(=O)N1CCCCCC1 | -38.4 |
| N#C/C(=C\c1ccco1)c1nc2ccccc2s1 | 4.36 |
| C(=C\c1ccccc1)/C=N/Nc1nc(N2CCOCC2)nc(N2CCOCC2)n1 | -9.68 |
| COc1ccc(C2c3cc(OC)c(OC)cc3CCN2C(=O)c2ccccc2Br)cc1OC (stereo not drawn) | -3.04 |
| COc1ccc(CCN(C)C/C=C/c2ccccc2)cc1OC | -64.6 |
| Cc1ccc(OCC(=O)Oc2ccc(C)c(C)c2)cc1 | 11.8 |
| C[C@@H]1CN(C(=O)c2nc3ccc(Cl)cn3c2CNCC[C@@H]2C[C@@H]3C=C[C@H]2C3)C[C@H](C)O1 | -20.5 |
| Nc1cc(=O)[nH]c(=S)n1-c1ccccc1 | 6.02 |
| CC1CCc2c(C(=O)N3CCN(S(=O)(=O)c4cccs4)CC3)csc2C1 (stereo not drawn) | -25 |
| CCCCNC(=O)C1CC(c2cccc([N+](=O)[O-])c2)=NO1 (stereo not drawn) | -13.8 |
| COc1ccc(N2C(=O)CCC(C(C)=O)=C2C)cc1 | 6.76 |
| COc1ccc(CNC(=S)Nc2ccccc2F)cc1 | 5.44 |

| SMILES | hERG current change (%, negative = inhibition) at 10uM [%] |
| --- | --- |
| COc1ccc(/C=C/C(=O)Nc2ccc(-n3nncc3-c3ccccc3)cc2)cc1OC | -1.27 |
| CC(C)(C)n1nc2c(c1NC(=O)c1ccc(C(F)(F)F)cc1)CS(=O)(=O)C2 | -38.9 |
| O=C(COC(=O)c1cccc(NS(=O)(=O)c2ccc(F)c(F)c2)c1)NC(=O)NC1CCCCC1 | -8.66 |
| COc1ccc(C(=O)/C=C/Nc2ccc(S(=O)(=O)Nc3cccc(C(C)=O)c3)cc2)cc1 | -0.287 |
| COC(=O)CCSc1nccn1Cc1ccccc1 | 3.91 |
| CCC(Oc1ccccc1)C(=O)N1CCN(c2ccccn2)CC1 (stereo not drawn) | -5.16 |
| Cc1ccc(C(=O)OCc2nc3ccccc3s2)o1 | -17.7 |
| O=C(N/N=C/c1cn(-c2ccccc2)nc1-c1cc2ccccc2o1)c1ccncc1 | 0.389 |
| CCOC(=S)SCC(=O)Nc1nc(-c2ccccc2)cs1 | 31.9 |
| O=C(CCc1ccccc1)c1ccc2c(c1)OCCCO2 | -23 |
| COc1ccc(N2CCN(C(=O)[C@@H]3CCCN3C3=NS(=O)(=O)c4ccccc43)CC2)cc1 | -0.599 |
| CN1CCC(=NNC(=O)C(=O)NC2CCCCC2)CC1 | 7.62 |
| COc1ccc(-c2cc(-c3cccnc3)c(C#N)c(N)n2)cc1 | -2.6 |
| CCc1ccccc1OCC(=O)Nc1ccc(S(N)(=O)=O)cc1 | 29.1 |
| Cc1ccsc1C(=O)OCC(=O)Nc1ccc(Cl)cc1C(F)(F)F | 9.99 |
| CCCCN(CC)S(=O)(=O)c1ccc(C(=O)Nc2nnc(CSC)o2)cc1 | -8.53 |
| Cc1ccc(-c2csc(NC(=O)/C=C/c3cccs3)n2)cc1C | 9.21 |
| S=C(NCc1ccco1)Nc1ccc(Cl)cc1Cl | 8.1 |
| CCN(CC(=O)NC(C)C)C(=O)CCNC(=O)c1ccc(Cl)cc1 | -0.92 |
| COc1ccc(Oc2cn[nH]c2-c2ccc(OC)cc2O)cc1 | -2.64 |
| CCN1CCN(CCOc2ccc(Br)cc2C)CC1.O=C(O)C(=O)O | -46.6 |
| O=C(NCc1ccc2c(c1)OCO2)C(=O)NC1CCCCC1 | -13.2 |

| SMILES | hERG current change (%, negative = inhibition) at 10uM [%] |
| --- | --- |
| CN(c1ncc(C(F)(F)F)cc1Cl)N1C(=O)c2cccc(N)c2C1=O | 3.2 |
| Cc1cc(C)c(OCC(=O)OC(C)C(=O)N2CCc3ccccc32)c(C)c1 (stereo not drawn) | -10.8 |
| COCCN(C(=O)CSc1nnc(Nc2ccccc2F)s1)c1c(N)n(Cc2ccccc2)c(=O)[nH]c1=O | 4.69 |
| COC(=O)C(C)NC(=O)C(C)NC(=O)OCc1ccccc1 (stereo not drawn) | 14.4 |
| CCCCC(O)(c1ccc(F)cc1)C(CN1CCOCC1)c1ccc(Cl)cc1.Cl (stereo not drawn) | -12 |
| COc1ccc(CCNC(=O)CSc2n[nH]c(C)c2[N+](=O)[O-])cc1OC | -1.14 |
| CCC(C)c1ccc(NC(=S)Nc2ccc(OC)cc2)cc1 (stereo not drawn) | -17.2 |
| O=C(NCc1ccc(F)cc1)c1cnccn1 | 15.8 |
| COc1ccccc1CCNC(=O)C(=O)NCC1OCCN1C(=O)c1ccc(Cl)cc1 (stereo not drawn) | -0.975 |
| Cc1cccc(OCC(=O)Nc2ccc(C(=O)NCc3cccnc3)cc2)c1 | -0.608 |
| Cc1cc(C)n(-c2ncnc3ccccc23)n1 | 18.9 |
| Cc1ccccc1CSCC(=O)Nc1ccccc1Br | 6.98 |
| CCCNC(=O)CCCN1C(=O)c2ccccc2Sc2ncccc21 | 27.7 |
| COc1ccc(N(C(=O)c2snc(C(N)=O)c2N)C(C(=O)NC2CCCC2)c2ccc(C)o2)c(OC)c1 (stereo not drawn) | -37.8 |
| CC(C)C(NS(=O)(=O)c1ccccc1)C(=O)N1CCCCCC1 (stereo not drawn) | -0.46 |
| COCC(=O)N1CCC(Oc2cccc(C(=O)NCc3ccccn3)c2)CC1 | 16.7 |
| COc1cc2c(cc1OC)C(NNC(=O)c1ccc(Br)o1)=NC(C)(C)C2 | 8.61 |
| CC(C)C[C@@H](CO)N1CCN(Cc2ccccc2)CCC1=O | 6.02 |
| COc1ccc(-n2c(SC(C)C(=O)Nc3ccc(NC(C)=O)cc3)nc3ccccc3c2=O)cc1OC (stereo not drawn) | 12.9 |
| CCOc1ccccc1N(CC(=O)NC(C)(C)C)C(=O)c1ccc(CN2CCOCC2)o1 | 16.4 |
| CC1CCc2c(sc(NC(=O)CSc3nc4c(c(C(F)(F)F)n3)CCc3ccccc3-4)c2C(N)=O)C1 (stereo not drawn) | 15.5 |
